This passage reports binding signal results from paper PMC10668032.

This is one part of the list. At the low end of the ranking the order means little.

This experiment concerns the target SIX1 homeodomain (reference allele) (UniProt Q15475). Briefly: universal protein binding microarray. The note with it: Universal all-10-mer PBM (8x60K, AMADID 030236), 300 nM GST-tagged protein, Alexa Fluor 488 anti-GST; buffer, salt, pH and temperature not stated; high values mean tight binding; most listed sequences are background and not binding sites; double strand, one strand shown.
Turning to CTGTCTGC, the binding signal is -0.0986 E-score.
Consider AGAATTCT, for which the binding signal was found to be 0.00881 E-score.
Take CGTATTCC: the binding signal came to 0.15 E-score.
For CTGAGATA, the binding signal was 0.248 E-score.
For the sequence AGCTAGGA, the binding signal stood at 0.0271 E-score.
Regarding GAGGACGA, the binding signal is -0.0345 E-score.
The result for CATAGTGC reads 0.0188 E-score; that for CCCATAGC, -0.142 E-score; that for GTACGAGA, -0.00962 E-score.
CCCGTCAG: the binding signal was -0.191 E-score.
Under ACAGTTAC stands -0.243 E-score; under ATGTTCGC, -0.207 E-score.
As to CGATGCAG, the binding signal was found to be 0.21 E-score.
As to CCGTCAAA, the binding signal is -0.286 E-score.
On to CAGCCGAG, for which the binding signal was -0.122 E-score.
Consider AACCCTAA, for which the binding signal was -0.0264 E-score.
The result for CTCTCATA reads 0.0633 E-score; that for CCGGCCGG, -0.0496 E-score.
On to CTACGGGA, for which the binding signal was 0.103 E-score.
The result for ATTCATGC reads 0.0344 E-score.
In the case of ACGTCGCT, the binding signal is -0.247 E-score.
On to GGCGGCCC, for which the binding signal was -0.221 E-score.
Turning to CCGCGTGC, the binding signal is -0.154 E-score.
With CGCGCCTC, the binding signal was -0.0228 E-score.
As for TACACCTA, the binding signal was found to be 0.304 E-score.
ATATAAAT: the binding signal worked out at 0.21 E-score.
Take ATTAAATA: the binding signal amounted to 0.24 E-score.
In the case of CGTACTGA, the binding signal was determined as 0.113 E-score.
Under AGATAGGC stands 0.0836 E-score; under CCCAGTCG, -0.108 E-score.
The result for CGGTATCC reads 0.451 E-score; that for GGAGGATA, 0.387 E-score.
Consider AGGCGTAT, for which the binding signal stood at 0.318 E-score.
For GCATTTCC, the binding signal was -0.255 E-score.
CTACCAGC: the binding signal was -0.178 E-score.
For GGTCTCCA, the binding signal is -0.0342 E-score.
As to AGAAATTA, the binding signal was -0.276 E-score.
On to CGCACTGA, for which the binding signal was 0.0595 E-score.
With GATTGTCC, the binding signal was -0.115 E-score.
For AGAACGCC, the binding signal is -0.229 E-score.
Consider CATACAAC, for which the binding signal was determined as 0.0308 E-score.
As to ATACAGCA, the binding signal was found to be 0.221 E-score.
With GAGGCCAA, the binding signal was -0.129 E-score.
With AATAGCGA, the binding signal amounted to 0.0409 E-score.
Take GAGCGCGC: the binding signal is -0.167 E-score.
The result for ACGCATTA reads -0.105 E-score; that for CCACTTAG, -0.0735 E-score; that for GGTCGACC, -0.0987 E-score.
For CTGGTAAC, the binding signal is -0.0986 E-score.
CCATTATA: the binding signal was 0.177 E-score.
In the case of AGTGTCTA, the binding signal is 0.0274 E-score.
Under AGATTAGC stands -0.0739 E-score; under GCATCGCC, -0.0214 E-score.
Turning to AGTCCGTA, the binding signal was -0.165 E-score.
Regarding AGATAAAA, the binding signal is 0.0034 E-score.
For the sequence CGCAGTCC, the binding signal was -0.0475 E-score.
For the sequence GCGACGAC, the binding signal was -0.273 E-score.
The result for CTCTTGCC reads -0.113 E-score; that for ATACCGCC, 0.418 E-score.
As for GACCCCAC, the binding signal was determined as 0.039 E-score.
The result for GTGTCGCA reads 0.173 E-score.
CTAATGTA: the binding signal is 0.106 E-score.
For ATCTATGG, the binding signal was determined as 0.065 E-score.
The result for CCGCCCGA reads 0.129 E-score; that for AGTGGTAC, -0.164 E-score; that for GGCGCACA, -0.168 E-score.
Take ACACGCAC: the binding signal turned out to be 0.0584 E-score.
In the case of CAACGAGA, the binding signal came to 0.0289 E-score.
Take CACACTCA: the binding signal was -0.0303 E-score.
Regarding CACCCTGG, the binding signal came to 0.0845 E-score.
The result for AGTAGGGC reads -0.107 E-score; that for AGAGTGCC, -0.329 E-score.
Regarding ACTGGGGC, the binding signal is -0.0721 E-score.
Turning to ATAGGACA, the binding signal was 0.0181 E-score.
Turning to GCACTGGA, the binding signal was -0.0936 E-score.
The result for AGGCGCAC reads -0.0935 E-score.
GTCTAGGA: the binding signal is -0.0546 E-score.
With ACACATGA, the binding signal is -0.104 E-score.
With AGTCTGGC, the binding signal is -0.227 E-score.
Take ATCTATTC: the binding signal is 0.24 E-score.
Under CTCCGAGC stands 0.0974 E-score; under ACCACGGC, -0.0202 E-score.
Consider CATCAATA, for which the binding signal is 0.0491 E-score.
Take GGCAAAGA: the binding signal was -0.17 E-score.
As to AGTTCGAG, the binding signal was -0.0394 E-score.
AGCCCTCC: the binding signal was -0.117 E-score.
Consider AGGTGTAT, for which the binding signal came out at 0.377 E-score.
Turning to ATAGATGA, the binding signal turned out to be 0.287 E-score.
Take GGTTAAAA: the binding signal is -0.155 E-score.
As to GAGCTCCC, the binding signal was determined as 0.0985 E-score.
As to CTGCGCGC, the binding signal stood at 0.0228 E-score.
For the sequence CCTTAAAC, the binding signal is -0.0612 E-score.
ATAGCCAC: the binding signal worked out at 0.213 E-score.
The result for CGAAGGTA reads 0.103 E-score; that for CCCGGACG, -0.218 E-score; that for GCGGATAA, 0.317 E-score.
On to GACTTCGA, for which the binding signal is -0.297 E-score.
Under GTAGTCAC stands -0.211 E-score; under CCCCATGC, 0.112 E-score.
For AAAGTGAT, the binding signal came out at 0.242 E-score.
Take ACGTCTGC: the binding signal was -0.217 E-score.
Under AGATCCAT stands 0.254 E-score.
With CGGGTACG, the binding signal came out at 0.0311 E-score.
Turning to CCGCGCAC, the binding signal was 0.0187 E-score.
Under CAGCCTTC stands -0.211 E-score.
For GTATGCAC, the binding signal was -0.0857 E-score.
Turning to AGACACTG, the binding signal was determined as 0.102 E-score.
Consider CCCACTTA, for which the binding signal is -0.0226 E-score.
For the sequence AGGGTAGA, the binding signal amounted to 0.0296 E-score.
Consider AGTCACAA, for which the binding signal is -0.111 E-score.
On to CAACCTAA, for which the binding signal is -0.132 E-score.
Under GCATCCCC stands 0.145 E-score; under CCATCATC, -0.105 E-score; under GAATTGCA, -0.257 E-score.
The result for ACGGATTC reads 0.187 E-score.
Regarding CCATGCTC, the binding signal is -0.0939 E-score.
As to ACACCGGT, the binding signal was found to be 0.39 E-score.
As to CCATAGCC, the binding signal was -0.0111 E-score.
Consider AGAACACC, for which the binding signal came out at 0.179 E-score.
As for CTAAAACC, the binding signal was -0.171 E-score.
For ATCTGTTC, the binding signal is -0.0315 E-score.
Regarding ACCAACTA, the binding signal was found to be 0.0637 E-score.
Take GGTAATAC: the binding signal is 0.297 E-score.
AGCAATTC: the binding signal was -0.173 E-score.
The result for GCAGACGC reads -0.0918 E-score; that for ATCGCAAA, 0.121 E-score; that for TATCACGA, 0.373 E-score.
Under ACGATGGG stands -0.0307 E-score; under CTATGCTC, -0.154 E-score; under CGAGTCGA, 0.0265 E-score.
Regarding GCATCAAC, the binding signal is -0.052 E-score.
In the case of CCCGTAAA, the binding signal was -0.0845 E-score.
As for ATAGCTCC, the binding signal amounted to 0.0647 E-score.
On to AGCTCTAA, for which the binding signal is -0.0455 E-score.
In the case of CAATTCGC, the binding signal is -0.0588 E-score.
CACAAAAC: the binding signal is -0.121 E-score.
The result for CTTATTGC reads -0.128 E-score.
Under CATGCCAG stands 0.0251 E-score.
In the case of AACATTGC, the binding signal was -0.229 E-score.
Turning to AGATGATA, the binding signal worked out at 0.432 E-score.
Regarding ACGTCGAG, the binding signal was -0.125 E-score.
As for ACGGTTGC, the binding signal is -0.235 E-score.
The result for AGCTATTG reads -0.0486 E-score.
Take AGCCGAAC: the binding signal was -0.22 E-score.
As to AATAGCCC, the binding signal is -0.0111 E-score.
The result for CCGTCAGC reads -0.241 E-score.
As to CGTGGCGC, the binding signal is -0.354 E-score.
With GCGAATCC, the binding signal was -0.0573 E-score.
On to ATATCAAC, for which the binding signal was 0.418 E-score.
As for AGAGCTCT, the binding signal was -0.197 E-score.
The result for AGTTCGGG reads -0.161 E-score; that for ACTAGACG, 0.0521 E-score.
The result for AGAAAGCC reads -0.277 E-score; that for CTAACCAA, -0.12 E-score.
For the sequence AGTCCGAT, the binding signal was 0.0388 E-score.
Under ACATTGCG stands -0.0894 E-score; under CAATCGGG, -0.0725 E-score; under ATGAGGAA, -0.0781 E-score.
Turning to CGTGTTTC, the binding signal is -0.218 E-score.
Consider AGTATCCC, for which the binding signal amounted to 0.412 E-score.
As for CGGATTGA, the binding signal amounted to 0.305 E-score.
With GGCCCTGA, the binding signal was -0.259 E-score.
Turning to ATGCTGGG, the binding signal was -0.0546 E-score.
Under AGTCGTGA stands -0.000895 E-score; under CCGCTAGA, -0.171 E-score.
The result for AGGGTCCC reads -0.31 E-score; that for TATGCATA, 0.202 E-score.
On to AAGATACT, for which the binding signal was 0.295 E-score.
For GGAAGACA, the binding signal was -0.14 E-score.
In the case of TGATCAAA, the binding signal worked out at 0.0636 E-score.
As to AACTGAAC, the binding signal was -0.142 E-score.
As to AGCCTTAT, the binding signal amounted to 0.114 E-score.
